Data as given in PubChem BioAssay AID1508624 (National Center for Advancing Translational Sciences (NCATS), 2021).
Hit rate of the full screen: of about 48,000 compounds, about 120 (0.25%) were called active. Not shown: some 4% with an inconclusive outcome. The call rests on the fitted dose curve; in most records, active means well fitted activation curve with a large enough effect; inconclusive means small, poorly fitted or top-dose-only effect, or another doubt; inactive means no such curve, though single readings can be large or run the other way. Some of the results follow.

Assay: Primary qHTS for Identification of Small Molecule Activators of Huntingtin-Antisense Promoter Activity; further: nearly all actives have a fitted effect of over 55% in size
Settings: HEK293 HTT-AS promoter firefly luciferase reporter, 24 h; series mostly up to 57.5 µM; activity change, positive = activation: at the top concentration
Procedure, shortened: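 HEK293 luciferase promoter-reporter cells (2,500/well) plated 24 h, then compounds added at up to 57.5 uM final for 24 h at 37 °C. Firefly luminescence by Dual-Glo, normalized to vehicle (0%) and zero RLU (-100%).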

Activity change, positive = activation, inactive:
O=S(=O)(NCc1ccccc1Cl)c1ccc(N2CCCCS2(=O)=O)cc1 -28.8%
Cc1cccc(C(=O)Nc2nc(-c3nnn(-c4cc(F)ccc4F)c3C)ns2)c1 -24.3%
Cc1cccn2c(=O)c3cc(C(=O)N(Cc4ccccc4)C(C)C)sc3nc12 0.0367%
CCCCN(C)CCNC(=O)c1ccc2c(c1)NC(=O)CN2 6.4%
Cc1c(C(=O)NCCc2ccc(S(N)(=O)=O)cc2)sc2nc3n(c(=O)c12)CCCC3 -11.8%
CC1CCN(S(=O)(=O)c2ccc3c(c2)N(CC(=O)O)C(=O)CO3)CC1 -18.9%
Cc1cccc(Cn2c(C)c(CNC3CCCCC3)c(C(=O)O)c2C)c1 -16.3%
COc1ccc(-c2cc(C(F)(F)F)n3nc(C(=O)NCC45CC6CC(CC(C6)C4)C5)cc3n2)cc1OC -14.5%
CCOC(=O)c1ccccc1NC(=O)N1CCOc2ccc(Cl)cc21 -33.2%
Cc1cc(Cl)ccc1NC(=O)C1CCN(c2nnc(-n3c(C)ccc3C)s2)CC1 -9.5%
CCc1ccccc1NC(=O)CSc1nc2c(oc3ccccc32)c(=O)n1-c1ccccc1F -22.3%
COc1ccc(-c2ccc3cc(C(=O)O)ccc3c2)cc1C12CC3CC(CC(C3)C1)C2
Cc1ccc(NC(=O)C(=O)NCC(c2cccnc2)N2CCN(Cc3ccccc3)CC2)cc1 (stereo not given) -19%
COc1ccc(OC)c(S(=O)(=O)N2CC=C(c3c(C)n(CC(=O)N4CCCC4)c4ccccc34)CC2)c1 -19.1%
CCOc1ccc(C2C(C(=O)Nc3ccc(Cl)cc3)=C(C)Nc3nc(C(F)(F)F)nn32)cc1 (stereo not given) -28.4%
O=S(=O)(c1ccc(Cl)cc1)c1nnn2c1nc(N1CCCCC1)c1sccc12 -13.3%
Cc1ccccc1NC(=O)CN(c1ccc(Cl)cc1Cl)S(=O)(=O)c1ccccc1 -19.8%
Cc1cn(C)c(CC(=O)N2CCN(c3ccccc3F)CC2)c1C(=O)O -9.05%
COc1ccc(-c2nc3sc(CCNC(=O)c4ccccc4C)c(C)n3n2)cc1 -6.87%
Cc1cccc(NC(=O)N2CCC(CN3CCOCC3)CC2)c1C -5.39%
CC(CNC(=O)CCS(=O)(=O)c1ccc2c(c1)oc(=O)n2C)c1ccccc1 (stereo not given) 16.3% [at 11.5 µM, percent change from vehicle, -100% = no light]
Cc1ccc2c(c1)-c1c(c(C(=O)N3CCN(c4cc(Cl)ccc4C)CC3)nn1C)CS2 -8.44%
CCOc1ccc(NC(=O)Cn2c(=O)cc(C)c3c(C)nn(-c4cccc(Cl)c4C)c32)cc1 3.53%
CCOc1ccc(C(=O)N2CCN(CCc3ccccn3)CC2)cc1 4.38% [at 11.5 µM, percent change from vehicle, -100% = no light]
Cn1c(=O)[nH]c(=O)c2c1nc1n2CCN1c1ccccc1 -5.6%
CCOc1ccc(S(=O)(=O)c2cn(Cc3ccc(OC)cc3)c3ccc(F)cc3c2=O)cc1 -2.78%
CC(C)c1ccc(NC(=O)CCNS(=O)(=O)c2ccc3c(c2)CCCC(=O)N3)cc1 -22.7%
CCOC(=O)CC(NC(=O)CCc1c(C)nc2ncnn2c1C)c1ccc(OC(C)C)cc1 (stereo not given) -15.9%
Cc1ccccc1CSc1nc2cccnc2n1Cc1ccc(C(=O)NC2CC2)cc1 10.6%
CCOc1ccc(Nc2nc(C)c(NC(=O)c3cccc(OC)c3)c(Nc3ccc(OCC)cc3)n2)cc1 -42%
COc1ccc(CNC(=O)C2CCC(CNS(=O)(=O)c3cccs3)CC2)cc1 (stereo not given) -22.4%
CCOC(=O)c1ccccc1NC(=O)CSc1cn(CC(=O)N2CCOCC2)c2ccccc12 -17%
Cc1ccc(-c2nc(S(=O)(=O)c3ccc(C)cc3)c(N3CCCCCC3)o2)cc1 -9.23%
Cc1ccc(N2CCN(S(=O)(=O)c3nnc(NC(=O)c4ccc(C(C)C)cc4)s3)CC2)cc1 0.316%
CCCCCCCCCCCC(=O)[O][Sn]([CH2]CCC)([CH2]CCC)[O]C(=O)CCCCCCCCCCC 0.366%
Cc1cc(C)c(NC(=O)CSc2nc(-c3ccc(F)cc3)nc3c2Cc2c(CO)cnc(C)c2O3)c(C)c1 -12.4%
COc1ccc(S(=O)(=O)N(CC(=O)Nc2cccc(C)c2)c2ccc(C)cc2)cc1OC -21.8%
CCOC(=O)C1=C(CN(CC)Cc2ccccc2)NC(=O)NC1c1ccc(OC(C)C)cc1 (stereo not given) -46.3%
COc1ccccc1CNC(=O)c1ccc(N2CCCC2)c(NC(=O)NCc2ccc(F)cc2)c1 -9.27%
CCCCSCCCNC(=O)C1CCN(Cc2nc(-c3cccc(Br)c3)oc2C)CC1 0.761%
O=C(Cn1ncc2c3ccccc3n(Cc3ccccc3F)c2c1=O)N1CCCCC1 15.7%
CC(C)CN(CCCNC(=O)CN1N=C(c2ccccc2)CCC1=O)CC(C)C 0.687%
CCOc1ccc(CCNC(=O)c2[nH]c3cc(OC)ccc3c2Sc2ccccc2)cc1OCC -0.615%
COc1ccc(N2CCN(c3ccc(-c4nc(-c5cccc(C)c5)no4)cc3[N+](=O)[O-])CC2)cc1 21.1%
CCOc1ccc(CCNC(=O)c2cnc3sc(N4CCCCCC4)nn3c2=O)cc1 -6.9%
COc1ccc(OC)c(NC(=O)CN2CCCN(Cc3cc(C)ccc3C)S2(=O)=O)c1 -12%
Cc1cccc2c1-c1sc(C(=O)N3CCN(c4cccc(Cl)c4)CC3)cc1CO2 -16.7%
CC(C)OCc1cc(CN2CCN(c3ccccc3)CC2)c(O)c2ncccc12 -43.2%
COc1ccc(-c2cc(C(F)(F)F)nc(SCC(=O)NCc3ccc(Cl)cc3)n2)cc1 -2.93%
CC1=C(C(=O)Nc2ccc(F)cc2F)C2(CCCCCC2)OC1=O -29.1%
O=C(CN1C(=O)C2(SCC(=O)N2c2ccc(F)c(F)c2)c2ccccc21)Nc1ccccc1F (stereo not given) -15.9%
O=C(CSc1nccn1Cc1ccc(Cl)cc1)NCc1ccccc1 -0.644%
CCOC(=O)c1ccc(N2C(=O)c3n[nH]c(-c4ccco4)c3C2c2ccc(F)cc2)cc1 (stereo not given) -57.5%
COc1ccccc1CNC(=O)C(CC(C)C)N1Cc2ccccc2C1=O (stereo not given) -12.6%
Cc1cccc(CC(=O)NCCc2csc(-c3ccc(C(F)(F)F)cc3)n2)c1 -31.1%
Cc1ccc(C)c(C(=O)COC(=O)CCCC(=O)Nc2cc(C(F)(F)F)ccc2Cl)c1 -26.7%
CCOc1ccc(NC(=O)CN2C(C(=O)OC)=C(c3ccccc3)c3cc(Cl)ccc3S2(=O)=O)cc1 -10.5%
Cc1cc(=O)[nH]c2nnc(SCc3ccc(Cl)cc3)n12 -16.5%
COC(=O)C1=C(c2ccccc2)c2ccccc2S(=O)(=O)N1CC(=O)Nc1ccc(OC)cc1OC -19.8%
O=C(NCc1ccccc1)C1CCN(S(=O)(=O)c2ccc3[nH]c(=O)ccc3c2)CC1 -9.41%
COc1ccc(NC(=O)c2c(NCc3cccc(F)c3)sc3c2CCCC3)c(OC)c1 -40.7%
Cc1cccc(N(C)S(=O)(=O)c2c(C(=O)N3CCCCCC3)c(C)n(C)c2C)c1 -10.6%
Cc1ccc(CNC(=O)CN2CCN(Cc3ccc(F)cc3)C2=O)cc1 -10.1%
COc1ccccc1NC(=O)C1CCN(S(=O)(=O)c2cn(C)cn2)CC1 -8.68%
COc1ccccc1-c1cc(NC(=O)COc2ccc(C)c(C)c2)n(-c2ccccc2)n1 8.49%
O=C(NC1CC(=O)N(c2ccccc2)C1)c1ccc(S(=O)(=O)N2CCOCC2)cc1 (stereo not given) -20.3%
c1ccc(-c2cn(-c3ccccc3)c3ncnc(N4CCN(c5ccccc5)CC4)c23)cc1 -1.96%
COc1ccc(OC)c(NC(=O)CSc2n[nH]c(-c3ccccc3Cl)n2)c1 -21.1%
Cc1cc(C)cc(Oc2c(C(F)(F)F)oc3c(CN4CCCC(C)C4)c(O)ccc3c2=O)c1 (stereo not given) -10.7%
COc1ccccc1N1CCN(c2ccc3cc(S(=O)(=O)N4CCCCC4)ccc3n2)CC1 -33.2%
CCOC(=O)CC(NC(=O)c1cc2cc(Cl)ccc2oc1=O)c1ccc(C)cc1 (stereo not given) 0.713%
CCOc1ccc(-n2nc(CO)c(C(=O)NCc3ccc(Cl)cc3)n2)cc1 -4.37%
CC1CCN(C(=O)CSc2c3c(nc4cc(Cl)ccc24)CCCC3)CC1 -43.3%
Cc1ccc(-c2nnc(SCCOc3ccccc3)o2)cc1 22.3%
COc1ccc(Br)c2c1-c1nc(NC(=O)c3cccc(C)c3)sc1C2 -18.4%
O=S1(=O)c2ccccc2N(Cc2ccc(Cl)cc2F)c2ccccc21 -14.6%
CN(C)S(=O)(=O)c1ccc2c(c1)c(=O)c(C(=O)N1CCN(c3cccc(Cl)c3)CC1)cn2C 0.752%
COc1ccc(OC)c(NC(=O)CSC2=Nc3ccccc3C3=NC(CCC(=O)NCc4ccco4)C(=O)N23)c1 (stereo not given) 8.46%
CCC(=O)Nc1nnc(S(=O)(=O)N(C)Cc2ccc(Cl)cc2)s1 -12.2%
CCOC(=O)c1ccc(NC(=O)CN(c2ccc(C)cc2)S(=O)(=O)c2ccc(OC)cc2)cc1 25.9% [at 11.5 µM, percent change from vehicle, -100% = no light]
CCOc1ccccc1NC(=O)CSC1=Nc2ccccc2C2=NC(CC(=O)NC3CCCCC3)C(=O)N12 (stereo not given) -16%
CCOc1ccc(-c2nc3c(c(SCC(=O)N4CCCCC4)n2)Cc2cc(C)ccc2O3)cc1 -5%
COc1ccc(N2CCN(CCCNC(=O)Nc3ccccc3Cl)CC2)cc1 -16.5%
COc1ccc(CCNC(=O)CN(c2ccc(C)cc2)S(=O)(=O)c2ccc(OC)cc2)cc1 -22.3%
CCOc1ccc(CN2C(=O)c3ccccc3Sc3ccc(C(=O)N4CCN(C)CC4)cc32)cc1 -19.9%
CCC(CC)C(=O)Nc1c(C(=O)N2CCN(c3ccccc3F)CC2)oc2ccccc12 -32.3%
CCC(Sc1nc2cc(OC)c(OC)cc2c(=O)n1Cc1ccc(Cl)cc1)C(=O)NCCOC (stereo not given) -1.67%
Cc1cc(NC(=O)c2cccnc2)cc(-c2nc3cc(Cl)ccc3o2)c1O -2.04%
COc1ccc(OC)c(NC(=O)CSC2=Nc3ccccc3C3=NC(CC(=O)NCc4ccco4)C(=O)N23)c1 (stereo not given) -26.7%
COc1ccc(NC(=O)c2sc3nc(C)c(C(=O)Nc4ccc(C)cc4C)c(-c4ccc(Cl)cc4)c3c2N)cc1 -15.9%
